The RNAGym collection of RNA variant scans (doi:10.7554/elife.90254)
The source gives no read counts; variants with many changes may rest on few reads.

B1: LINE1-mini (parent)
chain: GGCAGAGCUCAACACAGCGUGGCAAAGUGGCUGUGGCUAGACUGCC

Variants of: B1
Test: self-cleavage, relative activity (ratio to wild type); higher = more cleavage; in vitro, sequencing; the parent is a self-cleaving ribozyme

Variant	self-cleavage
CGCAGAGCUCAACAAAGCGUGGCAACGUGUCUGUGGCUAAACUGCC	0.01
CGCAGAGCUCAACAAAGCGUGGCAAAGUGGUUGUGGCUAGUCUGCU	0
CGCAGAGCUCAACAAAGCGUGGCAAAGUUGCUGUGGCUAGACUGCC	0.04
CGCAGAGCUCAACAAAGCGUGGCAAAGUGGCUGUGGCUACACUACC	0.02
CGCAGAGCUCAACAGAGGGUGGCAAAGUGGUUGUGGGUAGACUGCC	0
CGCAGAGCUCAACAGAUCGUGGCAAAGUGGCUGUGGCUAGACUGCC	0.01
CGCAGAGCUCAACAGAGCGUGCCAAAGUGGCUGUGGCUAUACUGCC	0.01
CGCAGAGCUCAACAUAGCGUGGCAUUGUCGCUGUGGCUAGAUUGCC	0.02
CGCAGAGCUCAACAUAGCGUGGCAUAGUGGCUGUGGCUAUACUGCC	0.02
CGCAGAGCUCAACAUAGCGUGGCAAAGUGGCUGUGCCUAGACUGCC	0.01
CGCAGAGCUCAACAUAGCGUGGCAAAGUGGCUGGGGCUAGAAUGCC	0.02
CGCAGAGCUCAACACAGGGUGGCAAAGUUGCUCUGGCUAGACUGCC	0.01
CGCAGAGCUCAACACAGUAUGGCAAAGUGGCUGUGGCUAGACUGCC	0.06
CGCAGAGCUCAACACAGUGUUCCAAAGUGACUGUGGUUAGACUGCC	0.03
CGCAGAGCUCAACACAGUGUGGCAAAAUGGCUGUGGCUAGACUGCC	0.03
CGCAGAGCUCAACACAGCGUGGAAAAGUGGCUGUGGCUAGACUCCC	0.26
CGCAGAGCUCAACACAGCGUGGGAAAGUGGCUUUGGCUAGACUGCC	0.07
CGCAGAGCUCAACACAGCGUGGGAAAGUGGCCAUGGCUAGACUGCC	0.01
CGCAGAGCUCAACACAGCGUGGUAAAGUGGCUGUGGCUCUACUGCC	0.04
CGCAGAGCUCAACACAGCGUGGUAAAGUGGCUGUGGCUAGAAUGCC	0.04
CGCAGAGCUCAACACAGCGUGGUAAAGUGCCUGUGGCUAGACUGCC	0.48
CGCAGAGCUCAACACAGCGUGGUAAAGUGGCUGUGGCUAGACUUCC	0.04
CGCAGAGCUCAACACAGCGUGGUAAAGUGGCGGUGGCUAGACUGCC	0.05

Variant	self-cleavage
CGCAGAGCUCAACACAGCGUGGCAAAGUGGAUGUGAUUAGAUUGCC	0.04
CGCAGAGCUCAACACAGCGUGGCAAAGUGGGUGUGGCUAGUCUGCC	0
CGCAGAGCUCAACACAGCGUGGCAAAGUGGGUGUGUCUAGACUGCC	0.02
CGCAGAGCUCAACACAGCGUGGCAAAGUGGGCGUAGCUAGACAGCU	0.01
CGCAGAGCUCAACACAGCGUGGCAAAGUGGCUGUGGAUAGAGUGCC	0.03
CGCAGAGCUCAACACAGCGUGGCAAAGUGGCUGUGGGUAGAGUGCC	0
CACAGAGCUCAACUCAUCGUCGCAAAGUGGCUGUGGCUAGACUGCC	0.02
CACAGAGCUCAACACUGCGUGGCAAAGUGGCUGUGGGCAGACUGCC	0.01
CACAGAGCUCAACACAGCGUGGCAAUGUGGCUGUGGCUAGACUGCC	0.19
CACAAAGCUCAACACAGCGAGGCAAAGUGGCUGUGGCUUGACUGCC	0.03
CACAGAGCUCAACACAGCUUGGCAAAGUGGCUGUGGCUAGAUUGCC	0.01
CACAGAGCUCAACACAGCGUGGCAAAGUGGCUGUGGCUACACUGCC	0.04
CACAGAGCUCAACACAGCGCUGCAAAGUGGUUGUGACUAGACUGCA	0.45
CCCGGAGCUCAACACAGCGUGGCAAAGUGGCUGUGGCUAGACUGCC	0.09
CCCAGUGCUCAACACAGCGUGGCAAAGUGGCUGUGGCUAGACUCCC	0.13
CCCAGAGCUCAUCACAGCGUGGGAAAGUGGCUGUGGCUAGACUGCC	0
CCCAGAGCUCAACACGGCGUGGCAAAGUGGCUGUGGCUAGACUGCC	0.01
CCCAGAGCUCAACAAAGAGUGGCAAAGUGGCUGUGGCUAGUCUGCC	0.02
CCCAGAUCACAAGACAGCGUGGCUAAGUGGAUGUGGCUAGACUGCC	0.01
CCCAGAGCUCAACACAGCGUGGCAAAGUGGCUGUGUCUAGACUGCC	0.03
CUCAGAGCUCCACACAGCGUGGCAAACUUGCGGUGGCUCGAGUGCC	0
CUCAGAGCUGAACACACAGUGGCAAAGUGGAUGUGGCUAGACUGCC	0.01
CUCAGAGCUCAACACAGCGUGGAAAAGGGGCUGUGGCUAGACUGCC	0.07

Variant	self-cleavage
CUCACAGCUCAACACAGCGUGGCAAAGUGGCUGUUGCUAGAGUGCC	0.03
CUCAGAACUCAACACAGCGUUGCAAAGUGGCUGUGGCUAGACUGCC	0.09
CUCAGAGCUCAACACAGCGUGGCAAAGUUGCUGUGGCUAGACUGCC	0.22
CUCAGAGCUCAACACAGCGUGGCAAAGUGGCCGCGGCUAGACUGCC	0.02
CGCAAAGCUCAAUACAUCGUGGCAAAGUGGCUGUGGCUAGACUGCC	0.05
CGCAAAGCUCAACACAGAGGGGCAAAGUAGCUGUGGCUAGAGUGCC	0.03
CGCAAAGCUCAACACAGCGUGGAAAAGUGGCUGUGGCUAGACUGCA	0.02
CGCAAAGCUCAACACAGCGUGGUAAAGUGGCUGUGGCUAGACUGCC	0.04
CGCAAAGCUCAACACAGCGCGGCAAAGUGGCUGUGGCUAGACUGCC	0
CGCAAAGCUCAACACAGCGUGGCAAAGUGGCUGUGGCUAGACGGCC	0.02
CGCACAGCUUAACACCGAGGGGCAAAGUGGUUGUGGCUAGACUGCC	0.02
CGCACAGCUCAACACAGGGUGGCAAAGUGGCUGUGGCUAGACUGCG	0.02
CGCACAGCUCAACACAGCGGGGCAAAUUGGUUGUGGCUAGACGGCC	0
CGCACAGCUCAACACAGCGUGGCAAAGCGGCUAUGGCUAGACUGCC	0.02
CGCAUCGCUAAACACAGCGUGGCAAAGUGGCUGUGGCUAGACUGCC	0
CGCAUUGCUAAACACAGCGUGGCAAAGUGGCUGUGGCUAGACUGCC	0
CGCAUAGGUCAACACAGCGUGGCAAAGUGGCUGUGGCUACACUGCC	0.01
CGCAUAGCUCAAUACAGAGUGGCAAAGUGGUUGUGGCUAGACUGCC	0.01
CGCAUAGCUCAACACAGAGUGGCAAAGUGCGUGUGGCUAGACUGCC	0
CGCAUAGCUCAACACAGGGUGACAAAGUGGCUGUGGCUAGACUGCC	0.01
CGCAUAGCGCAACACAGCGUGGCAAAGUGGCUGUGGCUAGACUGCC	0.01
CGCAUAGCUCAACACAGCGUGGCAAAGUGGCUGGGGCUAGACUUCC	0.03
CGCAGAACUCAACACGGCGUGGCAAAGUGGCUGUGGCUAGACUGCC	0.02

Variant	self-cleavage
CGCAGAACUCAACACGGCGUGGCGAAGUGGCUGUGGCUAGACUGCC	0.03
CGCAGAACUCAACACUGCGUGGCAAAGUGGCUGUGGCUAGACUGCC	0.02
CGCAGAACUCAACAGAGCGUGGCAAAGUGGCUGAGGCUAGACUGCC	0.01
CGCAGAACUCAACACAGUGUGGCAAAGUCGCUGUGGCUAGACUGCC	0.03
CGCAGAACUCAACACAGCGUGGCAAAGUGGCUGUGGAUAGACUGCC	0.01
CGCAGAACUCAACACAGCGUGGCAAAGUGGCUGUGGCCAGACUGCC	0.01
CGCAGACCUCAACACUGCGUGGCAAAGUGGCUGUGGCUAGACUGCC	0.01
CGCAGACAUCAACACAGCGUGGCAUGGUGGCUGUGGCUAGACUGCC	0.01
CGCAGACCUCAACACAGAGUGGCAAAGUGGCUUUGGCUAGACUGCC	0.03
CGCAGACCUCAACACACCGUGGCAAAGUGGCUGUGGCUAGACUGCC	0.03
CGCAGACCUCAACACAUCCUGACAAAGUGCCUGUGGAUAGACUGCC	0.01
CGCAGACCUCAACACAGCGUGGCAAAGUGGCUGUAGCUAGACUGCC	0.02
CGCAGAUCUCAACACGGCGUGGCAAAGUGGCUGUGGCUAGAAUGCC	0.01
CGCAGAUCUCAACACAGCGUGGCAUAGUGGCUGUGGCUAGACUGCC	0.05
CGCAGAUCUGAACACAGCGUGGCAAAGUGGCAGUGGCUAGACUGCC	0.04
CGCAGAUCUUAACACAGCGUGGCAAAGUGGCUGUGGCUAGACAGCC	0.01
CGCAGAUCUCAACACAGCGUGGCAAAGUGGCUGUGUCUAGACUGCC	0.03
CGCAGAGCUCAACACAACGUGGCGAAGUGGCUGUGGCGUGACUGCC	0.01
CGCAGAGCUCAACACAACGUGGAAAAGUUGCGGUGCCUAGACUGAC	0.02
CGCAGAGCUCAACACACCGUGGCAAAGUGGCUAUGGCUAGACUGCC	0.04
CGCAGAGCUCAACACAUCGUGCCAAAGUGGCUGUGGCUCGACUGCC	0.03
CGCAGAGCUCAACACAUCGUGGCAAAGUGGCUGUGGCUAAACUGCC	0
CGCAGAGCUCAACACAGCAUGGCAAAUUGGCUGCAGCUAGACUGCC	0.01

Variant	self-cleavage
CGCAGAGCUCAACACAGCCUGGCAAAGUGGCUUUGGCUAGACUGCC	0.04
CGCAGAGCUCAACACAGCCUGGCAAAGUGGCUGUGGCUAGACUUCC	0.13
CGCAGAGCUCAACACAGCGUAGCAAAGUGGCUGUGACUAGACUGCC	0.24
CGCAGAGCUCAACACAGCGUCGCAAAGUGCCUUUGGCUAGACUGCC	0.01
CGCAGAGCUCAACACAGCGUUGCAAAGUGGCUGUGCCUAAACUGCC	0.03
CGCAGAGCUCAACACAGCGUGCCAAUGUGUCUGUGGCUAGACUGCC	0.03
CGCAGAGCUCAACACAGCGUGCAAAAGUGGCUGUGGCUAGACUGCC	0.05
CGCAGAGCUCAACACAGCGUGCCAAAGUCGAUGUGGCUAGAAUGCC	0.01
CGCAGAGCUCAACACAGCGUGUCAAAGUGGCUGUGGCUAGACCGCC	0.04
CGCAGAGCUCAACACAGCGUGGCAAAAUGGCUGUGGCUAGACUGCA	0.44
CGCAGAGCUCAACACAGCGUGGCAAAAUGGCUGUGGCCAGACUGCC	0.03
CGCAGAGCUCAACACAGCGUGGCAAACUGGCCGUGGCUAGACUGCC	0.03
CGCAGAGCUCAACACAGCGUGGCAAAGUCGAUGUGGCUAGACUGCC	0.02
CGCAGAGCUCAACACAGCGUGGCAAAGUCCCUGUGGCUAGACGGCC	0.06
CGCAGAGCUCAACACAGCGUGGCAAAGUGUCUAUUGCUAGACUGCC	0.01
CGCAGAGCUCAACACAGCGUGGCAAAGUGGCUAUUGACAGACUGCC	0.01
CGCAGAGCUCAACACAGCGUGGCAAAGUGGCUCUGGAUAGACUGCC	0.01
CGCAGAGCUCAACACAGCGUGGCAAAGUGGCUCUGGCUAGACUCCC	0.01
CGCAGAGCUCAACACAGCGUGGCAAAGUGGCUUUGGCUAGAGUGCA	0.02
CGCAGAGCUCAACACAGCGUGGCAAAGUGGCUGUUGCUAGCCUGCC	0.01
